Results published in patent US11000038B2, “Pyridone compounds and agricultural and horticultural fungicides containing the same as active ingredients” (priority 2017, dated 2021).

How the values were obtained:
[1] = system: rice blast fungi (Magnaporthe grisea); type: in vivo; details: rice blast, spray treatment
[2] = system: tomato late blight fungi (Phytophthora infestans); type: in vivo; details: tomato late blight, spray treatment
[3] = system: cucumber anthracnose fungi (Colletotrichum orbiculare); test: Test Example H: cucumber anthracnose, spray treatment of cucumber plants; details: cucumber anthracnose, 250 ppm spray, 6 to 10 days after inoculation

SMILES | Test A control value [1] | Test F control value [2] | Test H control value [3]
CCc1ccc(OCCOC)cc1-n1cc(C)c(=O)c(C)c1-c1c(F)cccc1F [Compound 626] | L (L shows the control value of 50% or less) | L (L shows the control value of 50% or less) | L (L shows the control value of 50% or less)
CCc1ccc(OC)cc1-n1cc(Br)c(=O)c(CC)c1-c1c(F)cccc1F [Compound 627] | L (L shows the control value of 50% or less) | L (L shows the control value of 50% or less) | H (H shows the control value of more than 50%)
CCc1ccc(OC)cc1-n1cc(C)c(=O)c(CC)c1-c1c(F)cccc1F [Compound 628] | L (L shows the control value of 50% or less) | L (L shows the control value of 50% or less) | H (H shows the control value of more than 50%)
